Source: patent publication US6262064A, “Octahydrobenzo[f]quinoline-based receptor agonists and antagonists” (priority 1999, dated 2001)
At least one read-out could not be matched to a standard name with certainty.

Tests used:
[1] = system: beta-adrenergic receptor; assay: Beta-adrenergic (non-selective) binding assay ([3H]DHA); set-up: species or system rat
[2] = system: 5HT1 serotonin receptor; assay: Serotonin (5HT1) binding assay
[3] = system: 5HT3 serotonin receptor; assay: Serotonin (5HT3) binding assay ([3H]GR65630, NIE-115 neuroblastoma cells)
[4] = molecular target: T1, D1 dopamine receptor (Rattus norvegicus, UniProt P18901); assay: Dopamine D1 binding assay ([3H]SCH 23390); details: Table III; by a concentration of 10^-5; 10 µM
T1 construct: rat striatal membranes; from tissue; host or cells: rat striatum membranes
Experimental: The final radioligand concentration was 0.5 nM.

[5] = system: alpha2-adrenergic receptor; assay: Alpha2-adrenergic (non-selective) binding assay ([3H]RX 781094); set-up: species or system rat; details: Table III; by a concentration of 10^-5; 90 min, 10 µM
[6] = system: alpha1-adrenergic receptor; details: Table III; by a concentration of 10^-5; 10 µM
[7] = Table III; by a concentration of 10^-5; 30 min, 10 µM
[8] = Table III; by a concentration of 10^-5; 45 min, 10 µM
[9] = Table III, by a concentration of 10^-5, 30 min, 10 µM
[10] = Table III, by a concentration of 10^-5, 45 min, 10 µM

T1 sequence (P18901 whole entry): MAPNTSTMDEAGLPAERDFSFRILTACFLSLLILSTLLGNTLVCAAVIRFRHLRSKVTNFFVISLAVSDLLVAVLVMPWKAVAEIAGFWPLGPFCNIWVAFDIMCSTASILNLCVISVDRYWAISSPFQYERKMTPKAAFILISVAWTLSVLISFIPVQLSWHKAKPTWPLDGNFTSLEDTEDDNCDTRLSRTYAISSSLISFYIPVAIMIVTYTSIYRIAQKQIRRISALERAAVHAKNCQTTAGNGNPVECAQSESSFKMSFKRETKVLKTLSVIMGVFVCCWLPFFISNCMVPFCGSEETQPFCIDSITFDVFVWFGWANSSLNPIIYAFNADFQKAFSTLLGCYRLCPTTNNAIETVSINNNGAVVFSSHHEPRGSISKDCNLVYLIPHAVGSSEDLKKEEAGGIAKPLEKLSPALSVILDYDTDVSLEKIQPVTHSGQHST

| SMILES | β percent binding [1, 7] | 5-HT1 percent binding [2, 8] | 5-HT3 percent binding [3, 7] | D1 percent binding [4] | β percent binding [1, 9] | 5-HT3 percent binding [3, 9] | also measured |
| --- | --- | --- | --- | --- | --- | --- | --- |
| Oc1ccc2c(c1O)CC[C@@H]1[C@H]2CCCN1CCc1ccccc1 (relative stereo) [cis-9] | 11% | 23% | 11% | – | – | – | – |
| Oc1cccc2c1CC[C@H]1[C@@H]2CCCN1CCc1ccccc1 (relative stereo) [cis-25, Cis-7-hydroxy-4-phenethyl-1,2,3,4,4a,5,6,10b-octahydrobenzo[f]quinoline] | 52% | 36% | – | 18% | – | – | – |
| Oc1ccc2c(c1O)CC[C@@H]1[C@@H]2CCCN1CCc1ccccc1 (relative stereo) [trans-9, trans-7,8-dihydroxy-4-phenethyl-1,2,3,4,4a,-5,6,10b-octahydrobenzo[f]quinoline] | 11% | – | 22% | – | – | – | – |
| Oc1cccc2c1CC[C@H]1[C@H]2CCCN1CCc1ccccc1 (relative stereo) [trans-25, Trans-7-hydroxy-4-phenethyl-1,2,3,4,4a,5,6,10b-octahydrobenzo[f]quinoline] | 48% | – | – | – | – | – | – |
| Oc1cccc2c1CC[C@@H]1[C@@H]2CCCN1CCc1cccs1 (relative stereo) [trans-31] | 11% | 62% | 7% | 55% | – | – | – |
| Oc1ccc2c(c1O)CC[C@@H]1[C@@H]2CCCN1CCc1cccs1 (relative stereo) [trans-33] | 36% | – | 43% | 73% | – | – | – |
| Oc1ccc2c(c1O)CC[C@@H]1[C@H]2CCCN1CCc1ccccc1 (single isomer, unassigned) [cis-(+)-9] | – | – | 11% | – | 0% | – | α2 percent binding [5]: 39%; α1 percent binding [6]: 66%; 5-HT1 percent binding [2, 10]: 19% |
| Oc1ccc2c(c1O)CC[C@@H]1[C@H]2CCCN1CCc1ccccc1 (single isomer, unassigned) [cis-(-)-9] | – | – | 11% | – | 39% | – | 5-HT1 percent binding [2, 10]: 23% |
| Oc1ccc2c(c1O)CC[C@H]1[C@H]2CCCN1CCc1ccccc1 (single isomer, unassigned) [trans-(+)-9, Trans-(+)7,8-dihydroxy-4-phenethyl-1,2,3,4,4a,5,6, 10b-octahydrobenzo[f]quinoline] | – | 52% | – | – | 3% | 23% | – |
| Oc1cccc2c1CC[C@@H]1[C@@H]2CCCN1CCc1ccccc1 (single isomer, unassigned) [trans-(+)-25] | – | 59% | – | 24% | 27% | 23% | – |
| Oc1ccc2c(c1O)CC[C@H]1[C@H]2CCCN1CCc1ccccc1 (single isomer, unassigned) [trans-(-)-9, Trans-(-)-7,8-Dihydroxy-4-phenethyl-1,2,3,4,4a,5,6, 10b-octahydrobenzo[f]quinoline] | – | – | – | – | 19% | 21% | – |
| Oc1cccc2c1CC[C@@H]1[C@@H]2CCCN1CCc1ccccc1 (single isomer, unassigned) [trans-(-)-25, trans-(-)-7-hydroxy-4-phenethyl-1,2,3,4a,5,6,10b-octahydrobenzo[f]quinoline] | – | – | – | – | 47% | 39% | – |
